# Columns and labels:
# [1] = system: Human Gal3 peptides; assay: Gal3 peptide library binding ELISA; details: antibodies 5 μg/mL
# Description: (§1) To identify the epitopes to which Gal3 antibodies with and without Gal3-APP695 blocking activity bound, a library of 20 amino acid peptides representing portions of Gal3, summarized in FIG. 17 (SEQ ID NOs: 3-26), was produced and the ability to bind Gal3 antibodies was evaluated by ELISA.
# (§2) Human Gal3 peptides (LifeTein, custom order) and human Gal3 proteins (R&D Systems, 8259-GA; TrueBinding, QCB200349) were diluted in PBS (Corning, 21-030-CM) to concentrations of at least 100 μg/mL (peptides) or 1 μg/mL (proteins), and added to the wells of several 96-well ELISA plates (Thermo Fisher, 44-2404-21). After incubating the plates at 4° C. overnight, the plates were washed three times with PBST (PBS with 0.05% Tween 20 [VWR, 0777]). The plates were then blocked for an hour with 2% BSA (EMD Millipore, 126609) in PBST at room temperature with gentle rocking. Thereafter, the 2% BSA in PBST was discarded and Gal3-binding antibodies (reformatted hIgG4 [S228P]) were diluted in 2% BSA in PBST to concentrations of 5 μg/mL and added to the wells. The plates were incubated for an hour at room temperature with gentle rocking and then washed three times with PBST. Afterwards, Peroxidase AffiniPure F(ab′)2 Fragment Goat Anti-Human IgG (H+L) polyclonal antibody (Jackson ImmunoResearch, 109-036-003), was diluted in 2% BSA in PBST (1:4000) and added to the wells. The plates were incubated for 1 hour at room temperature with gentle rocking and then washed three times with PBST. TMB substrate (Thermo Scientific, 34029) was then added to each well. The reaction was stopped with 1M HCl (JT Baker, 5620-02) and read using a plate reader (Molecular Devices) at absorbance of 450 nm.
# [2] = biological target: T1, Human Gal3 peptides (Homo sapiens, UniProt P17931); assay: Gal3 peptide library binding ELISA; details: antibodies 5 μg/mL
# T1 construct: purchased LifeTein custom order; host or cells: synthetic peptides
# Description: as §1, §2
# [3] = biological target: T2, Gal3-induced Aβ42 oligomers (Homo sapiens, UniProt P17931); assay: Disruption of Gal3-induced Aβ42 oligomers (dot blot, A11/6E10); assay type: biochemical; details: hGal3-65-250 isoform-induced Aβ-42 oligomers; within 1 hour; FIG. 63D
# T2 construct: The anti-Gal3 antibodies were incubated with hGal3-65-250 isoform-induced Aβ-42 oligomers; made in house
# T2 sequence (P17931 65-250): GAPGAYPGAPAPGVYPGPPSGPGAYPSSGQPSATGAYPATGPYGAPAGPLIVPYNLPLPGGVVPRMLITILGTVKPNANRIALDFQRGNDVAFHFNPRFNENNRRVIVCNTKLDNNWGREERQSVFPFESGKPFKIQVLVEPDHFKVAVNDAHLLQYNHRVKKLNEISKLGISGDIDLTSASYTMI
Binding to Peptide 17 (SEQ ID NO: 19) of Gal3 [1],Binding to Peptide 6 (SEQ ID NO: 8) of Gal3 [2],Molecule,other results
bind,–,F849C.8H3: anti-Gal3 antibody (antibody) heavy: QVTLKESGPGILQPSQTLSLTCSFSGFSLSTFGMGVGWIRQPSGKGLEWLAHIWWDDDKHYNPALKSRLTISKDTSKNQVFLRIANVDTADNATYYCARIDYGDYVGFAYWGQGTLVTVSAASTKGPSVFPLAPCSRSTSESTAALGCLVKDYFPEPVTVSWNSGALTSGVHTFPAVLQSSGLYSLSSVVTVPSSSLGTKTYTCNVDHKPSNTKVDKRV[letters of human IgG4 Fc with S228P (EU numbers) omitted] light: DIGMRQAAFSNPVTLGTSASISCRSSKSLLYSNGITYLYWFLQKPGQSPQLLIYQMSNLASGVPDRFSSSGSGTDFTLRISRVEADDVGVYYCAQNLELPWTFGGGTKLEIKRTVAAPSVFIFPPSDEQLKSGTASVVCLLNNFYPREAKVQWKVDNALQSGNSQESVTEQDSKDSTYSLSSTLTLSKADYEKHKVYACEVTHQGLSSPVTKSFNRGEC,Binding to Peptide 2 (SEQ ID NO: 4) of Gal3 [2]: bind
bind,bind and bound,F846C.1H12: anti-Gal3 antibody (antibody) heavy: QIQLVQSGPELKKPGETVKISCKASGYTFTNFGMNWVKQAPGKGLKWMGWINTYTGEPSYADDFKGRFAFSLETSASTAYLQINNLKNEDIATYFCARWGGYAGDYYAMDYWGQGTSVTVSSASTKGPSVFPLAPCSRSTSESTAALGCLVKDYFPEPVTVSWNSGALTSGVHTFPAVLQSSGLYSLSSVVTVPSSSLGTKTYTCNVDHKPSNTKVDKRV[letters of human IgG4 Fc with S228P (EU numbers) omitted] light: NIMMTQSPSSLAVSAGQKVTMSCKSSQSVLYSSSQKNYLAWYQQKPGQSPKLLIYWASTRESGVPDRFSGSGSGTDFTLTISSVQPEDLAVYYCHQYLSSLTFGAGTKLELKRTVAAPSVFIFPPSDEQLKSGTASVVCLLNNFYPREAKVQWKVDNALQSGNSQESVTEQDSKDSTYSLSSTLTLSKADYEKHKVYACEVTHQGLSSPVTKSFNRGEC,Binding to Peptide 5 (SEQ ID NO: 7) of Gal3 [2]: bind
bind,bind and bound,F846C.1F5: anti-Gal3 antibody (antibody) heavy: QIQLVQSGPELKKPGETVKISCKASGYTFTNYGMNWVKQAPGKGLKWMGWINTYTGEPSYADDFKGRFAFSLETSASTAYLQINNLKNEDMATYFCARWGGYDGDYYAMDYWGQGTSVTVSSASTKGPSVFPLAPCSRSTSESTAALGCLVKDYFPEPVTVSWNSGALTSGVHTFPAVLQSSGLYSLSSVVTVPSSSLGTKTYTCNVDHKPSNTKVDKRV[letters of human IgG4 Fc with S228P (EU numbers) omitted] light: NIMMTQSPSSLAVSAGEKVTMSCKSSQSVLYSSNQKNYLAWYQQKPGQSPKLLIYWASTRESGVPDRFTGSGSGTDFTLTISSVQPEDLAVYYCHQYLSSLTFGAGTKLELKRTVAAPSVFIFPPSDEQLKSGTASVVCLLNNFYPREAKVQWKVDNALQSGNSQESVTEQDSKDSTYSLSSTLTLSKADYEKHKVYACEVTHQGLSSPVTKSFNRGEC,–
–,bind and bound,F846C.2H3: anti-Gal3 antibody (antibody) heavy: QIQLVQSGPELKKPGETVKISCKASGYTFTNYGMNWVKQAPGKGLKWMGWINTYTGEPSYADDFKGRFAFSLETSASTAYLQINNLKNEDMATYFCARWGGYDGDYYAMDYWGQGTSVTVSSASTKGPSVFPLAPCSRSTSESTAALGCLVKDYFPEPVTVSWNSGALTSGVHTFPAVLQSSGLYSLSSVVTVPSSSLGTKTYTCNVDHKPSNTKVDKRV[letters of human IgG4 Fc with S228P (EU numbers) omitted] light: NIMMTQSPSSLAVSAGEKVTMSCKSSQSVLYSSNQKNYLAWYQQKPGQSPKLLIYWASTRESGVPDRFTGSGSGTDFTLTISSVQPEDLAVYYCHQYLSSLTFGAGTKLELKRTVAAPSVFIFPPSDEQLKSGTASVVCLLNNFYPREAKVQWKVDNALQSGNSQESVTEQDSKDSTYSLSSTLTLSKADYEKHKVYACEVTHQGLSSPVTKSFNRGEC,–
–,–,849C.8D10: anti-Gal3 antibody (antibody) heavy: QVQLQQTGAELVKPGASVKLSCKASGYTFTSYWINWVKQRPGQGLEWIGNIYPGSSSIYYSEKFKSKATLTVDTSSSTAYMQLSSLTSDDSAVYYCARWGYWGQGTTLTVSSASTKGPSVFPLAPCSRSTSESTAALGCLVKDYFPEPVTVSWNSGALTSGVHTFPAVLQSSGLYSLSSVVTVPSSSLGTKTYTCNVDHKPSNTKVDKRV[letters of human IgG4 Fc with S228P (EU numbers) omitted] light: DVLMTQTPLSLPVSLGDQASISCRSSQDIVHSSGNTYLEWYLQKPGQSLKLLIYKVSNRFSGVPDRFSASGSGTDFTLKISRVEAEDLGVYYCFQGSHVPPTFGSGTKLEIKRTVAAPSVFIFPPSDEQLKSGTASVVCLLNNFYPREAKVQWKVDNALQSGNSQESVTEQDSKDSTYSLSSTLTLSKADYEKHKVYACEVTHQGLSSPVTKSFNRGEC,inhibition of Aβ-42 oligomer formation [3]: significant inhibition
bind,–,F847C.11B1: anti-Gal3 antibody (antibody) heavy: EVQLQQSGPELVKPGASVKISCKASGNTFTDHNMHWVKQSHGKSLEWIGYIYPYNGGTGYNQKFKSKATLTVDNSSSTVYMELRSLTSEDSAVYYCARGEYDYLAWFAYWGQGTLVTVSAASTKGPSVFPLAPCSRSTSESTAALGCLVKDYFPEPVTVSWNSGALTSGVHTFPAVLQSSGLYSLSSVVTVPSSSLGTKTYTCNVDHKPSNTKVDKRV[letters of human IgG4 Fc with S228P (EU numbers) omitted] light: EIVLTQSPASLSVTTGEKVTIRCITSIDIDDDMNWYQQKPGEPPKLLISEGNTLRPGVPSRFSSSGYGTDFVFTIENTLSEDVADYYCLQSDNKPLTFGAGTKLELKRTVAAPSVFIFPPSDEQLKSGTASVVCLLNNFYPREAKVQWKVDNALQSGNSQESVTEQDSKDSTYSLSSTLTLSKADYEKHKVYACEVTHQGLSSPVTKSFNRGEC,–
–,–,F846TC.14A2: anti-Gal3 antibody (antibody) heavy: QIQLVQSGPELKKPGETVKISCKASGYTFTNYGMNWVKQAPGKGLKWMGWINTYTGEPTYAGDLKGRFAFSLETSASTAYLQINNLKNEDTATYFCVRYTMDYWGQGTSVTVSSASTKGPSVFPLAPCSRSTSESTAALGCLVKDYFPEPVTVSWNSGALTSGVHTFPAVLQSSGLYSLSSVVTVPSSSLGTKTYTCNVDHKPSNTKVDKRV[letters of human IgG4 Fc with S228P (EU numbers) omitted] light: QAVVTQESALTTSPGETVTLTCRSSTGAVTTSNYANWVQEKPDHLFTGLIGGINNRVPGVPARFSGSLIGDKAALTITGAQTEDEAIYFCALWYSNHWVFGGGTKLTVLRTVAAPSVFIFPPSDEQLKSGTASVVCLLNNFYPREAKVQWKVDNALQSGNSQESVTEQDSKDSTYSLSSTLTLSKADYEKHKVYACEVTHQGLSSPVTKSFNRGEC,Binding to Peptide 8 (SEQ ID NO: 10) of Gal3 [1]: bind; Binding to Peptide 1 (SEQ ID NO: 3) of Gal3 [2]: bind and bound; Binding to Peptide 7 (SEQ ID NO: 9) of Gal3 [2]: bind and bound

# Reference: patent US20250145722A1, “ANTI-GAL3 ANTIBODIES AND METHODS OF USE” (TrueBinding, Inc., priority 2020, published 2025)
